According to the supplement of paper PMC8728848:
The list shows a part of the results.

Columns and labels:
Assay in all cases: glycan array binding signal (z-score within array); higher = stronger binding
Details in all cases: glycan notation: IUPAC condensed, linker removed
[1] = target: Neu5Ac(a2-3)Gal(b1-3)GlcNAc(b1-6)GalNAc
In short: (§1)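 The Consortium for Functional Glycomics database supplied 3228 glycan arrays, of which those lacking an available protein sequence were dropped. The binding signal, a within-array Z-score, was averaged across arrays of the same protein sequence and across linkers. Negative scores can be read as non-binding.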

[2] = target: Neu5Ac(a2-3)Gal(b1-3)GlcNAc6S
In short: as §1

[3] = target: Neu5Ac(a2-3)Gal(b1-3)[Fuc(a1-4)]GlcNAc
In short: as §1

[4] = target: Neu5Ac(a2-3)Gal(b1-3)[Fuc(a1-4)]GlcNAc(b1-3)Gal(b1-3)[Fuc(a1-4)]GlcNAc
In short: as §1

[5] = target: Neu5Ac(a2-3)Gal(b1-3)[Fuc(a1-4)]GlcNAc(b1-3)Gal(b1-4)[Fuc(a1-3)]GlcNAc
In short: as §1

[6] = target: Neu5Ac(a2-3)Gal(b1-3)[GlcNAc(b1-6)]GalNAc
In short: as §1

[7] = target: Neu5Ac(a2-3)Gal(b1-3)[Neu5Ac(a2-6)]GalNAc
In short: as §1

[8] = target: Neu5Ac(a2-3)Gal(b1-3)[Neu5Ac(a2-6)]GlcNAc(b1-3)[Fuc(a1-3)[Gal(b1-4)]GlcNAc(b1-6)]Gal(b1-4)Glc
In short: as §1

[9] = target: Neu5Ac(a2-3)Gal(b1-3)]Neu5Ac(a2-3)Gal(b1-4)]GlcNAc
In short: as §1

Neu5Ac(a2-3)Gal(b1-4)Glc = target: Neu5Ac(a2-3)Gal(b1-4)Glc
In short: as §1

[10] = target: Neu5Ac(a2-3)Gal(b1-4)GlcNAc
In short: as §1

[11] = target: Neu5Ac(a2-3)Gal(b1-4)GlcNAc(b1-2)Man
In short: as §1

[12] = target: Neu5Ac(a2-3)Gal(b1-4)GlcNAc(b1-2)Man(a1-3)[GlcNAc(b1-4)][Neu5Ac(a2-3)Gal(b1-4)GlcNAc(b1-2)Man(a1-6)]Man(b1-4)GlcNAc(b1-4)GlcNAc
In short: as §1

[13] = target: Neu5Ac(a2-3)Gal(b1-4)GlcNAc(b1-2)Man(a1-3)[Neu5Ac(a2-3)Gal(b1-4)GlcNAc(b1-2)Man(a1-6)]Man(b1-4)GlcNAc(b1-4)GlcNAc
In short: as §1

[14] = target: Neu5Ac(a2-3)Gal(b1-4)GlcNAc(b1-2)Man(a1-3)[Neu5Ac(a2-3)Gal(b1-4)GlcNAc(b1-2)Man(a1-6)]Man(b1-4)GlcNAc(b1-4)[Fuc(a1-6)]GlcNAc
In short: as §1

[15] = target: Neu5Ac(a2-3)Gal(b1-4)GlcNAc(b1-2)Man(a1-3)[Neu5Ac(a2-6)Gal(b1-4)GlcNAc(b1-2)Man(a1-6)]Man(b1-4)GlcNAc(b1-4)GlcNAc
In short: as §1

[16] = target: Neu5Ac(a2-3)Gal(b1-4)GlcNAc(b1-2)[Neu5Ac(a2-3)Gal(b1-4)GlcNAc(b1-4)]Man(a1-3)[GlcNAc(b1-4)][Neu5Ac(a2-3)Gal(b1-4)GlcNAc(b1-2)[Neu5Ac(a2-3)Gal(b1-4)GlcNAc(b1-6)]Man(a1-6)]Man(b1-4)GlcNAc(b1-4)GlcNAc
In short: as §1

[17] = target: Neu5Ac(a2-3)Gal(b1-4)GlcNAc(b1-2)[Neu5Ac(a2-3)Gal(b1-4)GlcNAc(b1-4)]Man(a1-3)[GlcNAc(b1-4)][Neu5Ac(a2-3)Gal(b1-4)GlcNAc(b1-4)Man(a1-6)]Man(b1-4)GlcNAc(b1-4)GlcNAc
In short: as §1

[18] = target: Neu5Ac(a2-3)Gal(b1-4)GlcNAc(b1-2)[Neu5Ac(a2-3)Gal(b1-4)GlcNAc(b1-6)]Man(a1-6)[Neu5Ac(a2-3)Gal(b1-4)GlcNAc(b1-2)Man(a1-3)][GlcNAc(b1-4)]Man(b1-4)GlcNAc(b1-4)GlcNAc
In short: as §1

[19] = target: Neu5Ac(a2-3)Gal(b1-4)GlcNAc(b1-3)Gal
In short: as §1

[20] = target: Neu5Ac(a2-3)Gal(b1-4)GlcNAc(b1-3)Gal(b1-3)GlcNAc
In short: as §1

[21] = target: Neu5Ac(a2-3)Gal(b1-4)GlcNAc(b1-3)Gal(b1-4)GlcNAc
In short: as §1

[22] = target: Neu5Ac(a2-3)Gal(b1-4)GlcNAc(b1-3)Gal(b1-4)GlcNAc(b1-2)Man(a1-3)[Neu5Ac(a2-3)Gal(b1-4)GlcNAc(b1-3)Gal(b1-4)GlcNAc(b1-2)Man(a1-6)]Man(b1-4)GlcNAc(b1-4)GlcNAc
In short: as §1

[23] = target: Neu5Ac(a2-3)Gal(b1-4)GlcNAc(b1-3)Gal(b1-4)GlcNAc(b1-3)Gal(b1-4)GlcNAc
In short: as §1

[24] = target: Neu5Ac(a2-3)Gal(b1-4)GlcNAc(b1-3)Gal(b1-4)GlcNAc(b1-3)Gal(b1-4)GlcNAc(b1-2)Man(a1-3)[Neu5Ac(a2-3)Gal(b1-4)GlcNAc(b1-3)Gal(b1-4)GlcNAc(b1-3)Gal(b1-4)GlcNAc(b1-2)Man(a1-6)]GalNAc
In short: as §1

[25] = target: Neu5Ac(a2-3)Gal(b1-4)GlcNAc(b1-3)Gal(b1-4)GlcNAc(b1-3)GalNAc
In short: as §1

[26] = target: Neu5Ac(a2-3)Gal(b1-4)GlcNAc(b1-3)Gal(b1-4)GlcNAc(b1-3)[Neu5Ac(a2-3)Gal(b1-4)GlcNAc(b1-3)Gal(b1-4)GlcNAc(b1-6)]GalNAc
In short: as §1

[27] = target: Neu5Ac(a2-3)Gal(b1-4)GlcNAc(b1-3)Gal(b1-4)GlcNAc(b1-6)[Gal(b1-3)]GalNAc
In short: as §1

[28] = target: Neu5Ac(a2-3)Gal(b1-4)GlcNAc(b1-3)Gal(b1-4)[Fuc(a1-3)]GlcNAc
In short: as §1

[29] = target: Neu5Ac(a2-3)Gal(b1-4)GlcNAc(b1-3)GalNAc
In short: as §1

B1: Siglec-9 (Homo sapiens), Q9Y336 (protein)
chain: MLLLLLPLLWGRERAEGQTSKLLTMQSSVTVQEGLCVHVPCSFSYPSHGWIYPGPVVHGYWFREGANTDQDAPVATNNPARAVWEETRDRFHLLGDPHTKNCTLSIRDARRSDAGRYFFRMEKGSIKWNYKHHRLSVNVTALTHRPNILIPGTLESGCPQNLTCSVPWACEQGTPPMISWIGTSVSPLDPSTTRSSVLTLIPQPQDHGTSLTCQVTFPGASVTTNKTVHLNVSYPPQNLTMTVFQGDGTVSTVLGNGSSLSLPEGQSLRLVCAVDAVDSNPPARLSLSWRGLTLCPSQPSNPGVLELPWVHLRDAAEFTCRAQNPLGSQQVYLNVSLQSKATSGVTQGVVGGAGATALVFLSFCVIFVVVRSCRKKSARPAAGVGDTGIEDANAVRGSASQGPLTEPWAEDSPPDQPPPASARSSVGEGELQYASLSFQMVKPWDSRGQEATDTEYSEIKIHR
- glycan array binding signal (z-score) [1]: 0.961
- glycan array binding signal (z-score) [2]: 0.256
- glycan array binding signal (z-score) [3]: 0.15
- glycan array binding signal (z-score) [4]: -0.103
- glycan array binding signal (z-score) [5]: -0.101
- glycan array binding signal (z-score) [6]: 0.02
- glycan array binding signal (z-score) [7]: 0.383
- glycan array binding signal (z-score) [8]: 0.225
- glycan array binding signal (z-score) [9]: 1.76
- glycan array binding signal (z-score) (Neu5Ac(a2-3)Gal(b1-4)Glc): 1.09
- glycan array binding signal (z-score) [10]: 0.222
- glycan array binding signal (z-score) [11]: 0.478
- glycan array binding signal (z-score) [12]: 0.06
- glycan array binding signal (z-score) [13]: 0.031
- glycan array binding signal (z-score) [14]: 0.17
- glycan array binding signal (z-score) [15]: -0.38
- glycan array binding signal (z-score) [16]: 0.336
- glycan array binding signal (z-score) [17]: 0.007
- glycan array binding signal (z-score) [18]: -0.042
- glycan array binding signal (z-score) [19]: 0.023
- glycan array binding signal (z-score) [20]: -0.278
- glycan array binding signal (z-score) [21]: -0.004
- glycan array binding signal (z-score) [22]: -0.006
- glycan array binding signal (z-score) [23]: 0.033
- glycan array binding signal (z-score) [24]: 0.156
- glycan array binding signal (z-score) [25]: -0.124
- glycan array binding signal (z-score) [26]: -0.187
- glycan array binding signal (z-score) [27]: -0.145
- glycan array binding signal (z-score) [28]: -0.009
- glycan array binding signal (z-score) [29]: 0.42
